# Measurements reported in PubChem BioAssay AID1345083 (National Center for Advancing Translational Sciences (NCATS), 2018).
# Out of some 94,000 compounds screened, about 6,200 (6.6%) were called active. The inconclusive results got no clear call from the source; some entries with a clear call stand among them for comparison. Calls come from the whole dose curve; as a rule, active = well fitted inhibition curve with a large enough effect; inconclusive = small, poorly fitted or top-dose-only effect; inactive = flat fitted curve, though single readings scatter. Where the call is inconclusive, the potency comes from a doubtful curve fit.
# Test: Cytotoxic Profiling in HEK 293 Cell Line of Diverse Libraries Using Quantitative High-Throughput Screening; note: nearly all actives have a fitted effect of over 60% in size
# Conditions: HEK 293 viability, ATP luminescence (CellTiter-Glo), 48-72 h; series mostly up to 115 µM
# In short: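 HEK 293 cells at 250 cells/well were exposed to compounds by pintool transfer for 48 or 72 hr at 37 degree Celsius, 5% CO2. Viability was read as ATP-coupled luminescence with CellTiter-Glo after 10 min at room temperature.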
# Potency is the fitted concentration of half-maximal effect; tags give direction and shape of the fitted curve.
row,Compound,Potency
1,CC(C)OCCCNC(=O)c1cc(-c2cccc(C(F)(F)F)c2)c2cccn2n1,"inconclusive: 50.1 µM [inhibitor, partial curve, poor fit]"
2,COc1ccccc1CC(=O)N1CCC[C@H]1c1nc(-c2ccc(OC)c(OC)c2)no1,"inconclusive: 89.1 µM [inhibitor, single point]"
3,Cc1cc(=O)n(CC(=O)Nc2ccc(Cl)cc2)c(N2CCc3ccccc3C2)n1,"inconclusive: 50.1 µM [inhibitor, partial curve, poor fit]"
4,COc1ccc(CC(=O)N2CCN(c3nccc(Nc4ccc(OC)cc4)n3)CC2)cc1,"inconclusive: 56.2 µM [inhibitor, partial curve, poor fit]"
5,Cc1ccc(CN2C(=O)NC3(CCN(C(=O)c4ccsc4)CC3)C2=O)cc1,"inconclusive: 89.1 µM [inhibitor, single point]"
6,O=C(N[C@H]1CO[C@H]2[C@@H]1OC[C@@H]2n1nnnc1Oc1ccc2c(c1)OCO2)c1ccc(C(F)(F)F)cc1,"inconclusive: 39.8 µM [inhibitor, partial curve]"
7,N#Cc1ccccc1S(=O)(=O)N[C@H]1CO[C@H]2[C@@H]1OC[C@H]2OC(=O)NC1CCCCC1,inactive
8,CCCCNC(=O)Cc1csc2nc(C)c(-c3cc(C)n(-c4cccc(C)c4C)n3)c(=O)n12,"inconclusive: 89.1 µM [inhibitor, partial curve, poor fit]"
9,COC(=O)c1ccc(NC(=O)Cn2nc3n(c2=O)CCCC3)cc1,inactive
10,COc1ccc(CNC(=O)c2cn3ccnc(-c4ccccc4)c3n2)cc1OC,"inconclusive: 89.1 µM [inhibitor, single point]"
11,O=C(c1nc2cccnc2n(C2CCCC2)c1=O)N1CCN([S+](=O)([O-])c2cccs2)CC1,"inconclusive: 89.1 µM [inhibitor, single point]"
12,CCOC(=O)C1=CN(CC(=O)Nc2ccc(C(F)(F)F)cc2)S(=O)(=O)N=C1C,"inconclusive: 89.1 µM [inhibitor, single point]"
13,O=C(c1ccsc1)N1CCN(c2cc(-c3cccs3)[nH]n2)CC1,"inconclusive: 89.1 µM [inhibitor, single point]"
14,Cc1ccc(-c2noc([C@@H]3C[C@@H](O)CN3Cc3cccc(OC(F)(F)F)c3)n2)cc1F,"inconclusive: 79.4 µM [inhibitor, partial curve, poor fit]"
15,CCC1(CC)CCN(C(=O)C2CCC(=O)N(Cc3ccccc3OC)C2)C1 (configuration not stated),"inconclusive: 89.1 µM [inhibitor, single point]"
16,CC(Oc1ccccc1)C(=O)N1CCC(n2cc(-c3nc(-c4ccccc4)no3)nn2)C1 (configuration not stated),"inconclusive: 50.1 µM [inhibitor, partial curve, poor fit]"
17,CNC(=O)CCn1ncc2cc(OCc3ccccc3-c3cccc(OC)c3F)ccc21,"inconclusive: 63.1 µM [inhibitor, full curve, poor fit]"
18,CCC(=O)N(C1CCOCC1)C1CCN(Cc2cccnc2)CC1,inactive
19,COC[C@@H]1CN(C(=O)COc2ccc(F)cc2)C[C@H]1c1nc(C)no1,inactive
20,O=C(NCCc1ccc(Cl)cc1)c1nc2sccn2c1-c1cccc(C(F)(F)F)c1,"inconclusive: 35.5 µM [inhibitor, partial curve]"
21,COc1cc(F)ccc1CN1CCCC12Cc1ccccc1CNC2=O (configuration not stated),"inconclusive: 56.2 µM [inhibitor, partial curve, poor fit]"

row,Compound,Potency
1,O=C1Nc2ccc(-c3ccc(Cl)cc3)cc2C(=O)N2CC[C@H](NS(=O)(=O)c3cccs3)C[C@@H]12,"inconclusive: 56.2 µM [inhibitor, partial curve, poor fit]"
2,COc1ccc(NC(=O)O[C@@H]2CO[C@H]3[C@@H]2OC[C@@H]3n2nnnc2Sc2ccccc2)cc1,"inconclusive: 44.7 µM [inhibitor, partial curve]"
3,c1ccc(-n2cc(CN3CCCN(Cc4cccs4)CC3)nn2)cc1,"inconclusive: 89.1 µM [inhibitor, single point]"
4,COc1ccc(OC)c(NC(=O)c2cccc3c2CCN3C(=O)c2ccc(F)cc2)c1,"inconclusive: 20 µM [inhibitor, full curve, poor fit]"
5,O=C(NCCN1CCOCC1)C1CCc2nnc(-c3ccc(F)cc3)n21 (configuration not stated),inactive
6,Cc1cccc(CN2CCCCC23Cc2ccccc2CNC3=O)n1 (configuration not stated),"inconclusive: 56.2 µM [inhibitor, partial curve, poor fit]"
7,CCOc1ccccc1C(=O)N1CCC[C@H]1c1nc(-c2ccc(OC)c(OC)c2)no1,"inconclusive: 89.1 µM [inhibitor, single point]"
8,CC(=O)N1CCN(C(=O)c2cn3cc(-c4cccc(C(F)(F)F)c4)sc3n2)CC1,"inconclusive: 50.1 µM [inhibitor, partial curve, poor fit]"
9,CC(=O)N1CCC(N[C@H]2C[C@@H](Cc3cc(CN(C)c4ccccc4)on3)C2(C)C)CC1,active: 70.8 µM
10,CNC(=O)CCn1ncc2cc(OC3CCc4cccc(-c5ccccc5F)c43)ccc21 (configuration not stated),"inconclusive: 63.1 µM [inhibitor, partial curve, poor fit]"
11,COc1cc(F)ccc1-c1nc(N2CCOCC2)cc2c1CN(CC1CC1)C2=O,"inconclusive: 126 µM [inhibitor, single point]"
12,O=C(C1CCCN1c1nccc(Nc2ccccc2F)n1)N1CCC(c2ccccc2)CC1 (configuration not stated),"inconclusive: 39.8 µM [inhibitor, partial curve, poor fit]"
13,O=C(NCCc1ccc(Cl)cc1)c1ccc2nnc(Cc3ccc(Cl)cc3)n2c1,active: 28.2 µM
14,Cc1ccc(-c2cccc(CN3CCCC3C(=O)NCc3cccs3)c2)cc1Cl (configuration not stated),active: 35.5 µM
15,O=C(NCc1cccnc1Oc1ccc(F)cc1F)c1cc(C2CC2)[nH]n1,active: 8.91 µM
16,COc1cccc(-c2cnc([C@@H]3COCCN3Cc3ccccc3)[nH]2)c1,"inconclusive: 79.4 µM [inhibitor, partial curve, poor fit]"
17,CCCS(=O)(=O)N1CCC2(CC1)NCCc1c2[nH]c2ccccc12,inactive
18,Cc1ccccc1-c1[nH]nc2ncc(-c3ccccc3O)nc12,active: 63.1 µM
19,O=C(C[C@H]1NC(=O)c2ccccc2NC1=O)Nc1cccc2ncccc12,inactive
20,CCCCc1ccc(NC(=O)CN2C(=O)NC3(CCS(=O)(=O)CC3)C2=O)cc1,"inconclusive: 89.1 µM [inhibitor, single point]"
21,O=C1NC2(CCN(Cc3ccc(F)cc3)C2)OCc2ccccc21 (configuration not stated),"inconclusive: 50.1 µM [inhibitor, full curve, poor fit]"

row,Compound,Potency
1,O=C(NCCc1ccc(Cl)cc1)c1nc(-c2cccc(C(F)(F)F)c2)c2ccccn12,"inconclusive: 56.2 µM [inhibitor, partial curve, poor fit]"
2,O=c1n(-c2cccc(Cl)c2)nc2n1CCN(Cc1ccc(F)cc1)C2,"inconclusive: 44.7 µM [inhibitor, partial curve, poor fit]"
3,COCCCNC(=O)c1cnc2n[nH]c(-c3ccccc3)c2n1,active: 100 µM
4,C#CCNC(=O)C1CCCN1c1nc2ncccc2o1 (configuration not stated),inactive
5,COc1ccc(C(=O)N2CCOCC3(C2)CN(c2ccccc2)C3)cc1OC,"inconclusive: 112 µM [inhibitor, partial curve, poor fit]"
6,CC(=O)N1CCN(C(=O)c2ccc3nnc(-c4ccc(F)cc4)n3c2)CC1,inactive
7,O=C(c1ccc(=O)[nH]n1)N1C[C@H]2OC(=O)N(CCCN3CCOCC3)[C@H]2C1,"inconclusive: 5.01 µM [inhibitor, partial curve, poor fit]"
8,CC(C)N1C[C@H](O)C[C@H]1c1nnc2n1CCN(C(=O)Cc1c[nH]c3ccccc13)CC2,inactive
9,Cc1ccc(-c2noc([C@@H]3CCCN3C(=O)c3ccncc3)n2)cc1,"inconclusive: 10 µM [inhibitor, full curve, poor fit]"
10,Cc1ccccc1C(=O)NCc1nnc2cc(-c3nc(C4CC4)no3)ccn12,"inconclusive: 50.1 µM [inhibitor, partial curve, poor fit]"
11,O=C(NCc1ccccc1)c1ccccc1OC1CN(C2CCC2)C1,"inconclusive: 50.1 µM [inhibitor, partial curve, poor fit]"
12,O=C1c2cnc(-c3ccccc3)nc2OCCN1Cc1ccccc1,"inconclusive: 17.8 µM [inhibitor, full curve, poor fit]"
13,O=C(NC1CCCCCC1)c1ccc2c(c1)CC(=O)N2Cc1ccc(F)cc1,"inconclusive: 50.1 µM [inhibitor, partial curve, poor fit]"
14,Cc1ccccc1NC(=O)N1CCC(CCNC(=O)Cc2ccsc2)CC1,inactive
15,Cc1cccc(C(=O)N2CCC3(CC2)c2nc[nH]c2CCN3CC(C)C)n1,inactive
16,O=C(O)C1(Cc2ccccc2F)CCCN(c2ncccn2)C1 (configuration not stated),"inconclusive: 7.94 µM [inhibitor, full curve, poor fit]"
17,Cc1cn2nc(C(=O)N3CCC(NC(=O)c4ccc(C)c(F)c4)CC3)cc2c(=O)[nH]1,"inconclusive: 89.1 µM [inhibitor, single point]"
18,CSc1cccc(NC(=O)Cn2c(N3CCOCC3)nc(C)cc2=O)c1,"inconclusive: 50.1 µM [inhibitor, partial curve, poor fit]"
19,COc1ccc(-c2cc(N3CCCN(C(=O)c4cccc(F)c4)CC3)n[nH]2)cc1,"inconclusive: 89.1 µM [inhibitor, single point]"
20,COc1ccc(C(=O)N2CC(N(C)c3ccccc3C)C2)cc1,"inconclusive: 70.8 µM [inhibitor, partial curve, poor fit]"
